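Dose response: 5 concentrations. Exposure: 48 h. Format: 96-well plates. Endpoint: linear interpolation; highest concentration if not reached. At the GI50, growth is halved.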 Calls of active or inactive are those of the source. No stated cut-off is given here; in the data, active = GI50 up to about 1.1 µM and inactive = higher. Where only a bound is given, the exact number is not on record here.

Data on 80 molecules can be found in ChEMBL document CHEMBL1201862, “PubChem BioAssay data set” (2004).

The test relates to NCI-H322M. The experiment in a line: NCI tumour cell line growth inhibition, 48 h.
Regarding `Cc1ccc(Nc2n[nH]c(NS(=O)(=O)c3cc(C)c(Cl)cc3S)n2)cc1`, the GI50 was inactive: > 100 µM.

`Cn1c(=O)c2nc(CS(=O)(=O)Cc3nc4c(=O)n(C)c(=O)n(C)c4[nH]3)[nH]c2n(C)c1=O`: the GI50 was inactive: > 100 µM.

As for `O=C(CC(=O)c1ccncc1)c1ccccc1`, the GI50 is inactive: 99.1 µM.

As to `Oc1ccccc1-n1nc2ccc3nonc3c2n1`, the GI50 was inactive: > 100 µM.

Take `Nc1cccc(OCc2nc(N)nc(N)c2-c2ccc(Cl)cc2)c1`: the GI50 is inactive: 76.4 µM.

In the case of `CC(C)(C)CC(C)(C)c1cc2c(O)c(c1)Cc1cc(C(C)(C)CC(C)(C)C)cc(c1O)Cc1cc(C(C)(C)CC(C)(C)C)cc(c1O)Cc1cc(C(C)(C)CC(C)(C)C)cc(c1O)Cc1cc(C(C)(C)CC(C)(C)C)cc(c1O)C2`, the GI50 is inactive: > 100 µM.

Turning to `Cn1c2c(c3ccccc31)CCN1OCC=C[C@@H](C(=O)O)[C@@H]21`, the GI50 is inactive: > 100 µM.

On to `C=CCN(CCNS(=O)(=O)c1ccc(C)cc1)S(=O)(=O)c1ccc(C)cc1`, for which the GI50 was inactive: > 100 µM.

For `O=C(C=P(c1ccccc1)(c1ccccc1)c1ccccc1)c1ccc(-c2cccs2)cc1`, the GI50 was inactive: 4.33 µM.

For the molecule `O=c1[nH]c2cc(C(F)(F)F)ccc2nc1Cc1ccccc1`, the GI50 is inactive: > 100 µM.

Take `CC(=O)N/N=C1\NC(=O)C[C@H]2[C@@H]3CC=C4C[C@@H](OC(C)=O)CC[C@]4(C)[C@H]3CC[C@]12C`: the GI50 is inactive: 25.5 µM.

Regarding `O=C1C(=c2cc3c(c4ccccc24)=NC24CCCCC2C(c2ccccc2)C=C(c2ccccc2)N34)C(=O)c2ccccc21` (stereo not given), the GI50 is inactive: 96.8 µM.

`Cc1ccc(SC2C(=O)C3CC(OCc4ccccc4)C2(C)C3(C)C)cc1` (stereo not given): the GI50 was inactive: > 100 µM.

With `COc1ccccc1C(C1=C(O)COC1=O)c1cc2c(cc1OC(C)=O)OCO2` (stereo not given), the GI50 was inactive: > 100 µM.

As for `Nc1c(C(=O)O)nnc2ccc(Cl)cc12`, the GI50 is inactive: > 100 µM.

As to `C/C(=C/CC[C@]1(CO)CC[C@]2(CO)[C@H](CC[C@@H]3[C@@]4(C)CC[C@H](OC5OCC(O)C(O)C5OC5OC(CO)C(O)C(O)C5O)C(C)(C)[C@@H]4CC[C@]32C)[C@H]1O)CO` (stereo not given in full), the GI50 was inactive: > 100 µM.

`c1ccc(-c2cn3nc(N4CCOCC4)sc3n2)cc1`: the GI50 was inactive: > 100 µM.

As to `O=S(=O)(O)c1c(Cl)c(Cl)c(O)c2ncccc12`, the GI50 was inactive: 11.9 µM.

Take `O=C(O)C1(CC(CCCN2CCCCC2)c2ccccc2)CCCC1` (stereo not given): the GI50 was inactive: > 100 µM.

`N=C(N)NS(=O)(=O)c1ccc(NC(=O)c2cccc3c(N)c4ccccc4nc23)cc1`: the GI50 is inactive: 53.7 µM.

With `CCCCCCCCCCC(=O)CC(=O)c1c(O)cccc1O`, the GI50 was inactive: 40.7 µM.

For the molecule `CC1(C)CC(=O)c2c(nc3c4c([nH]c(-c5ccc(Br)cc5)c24)CC(C)(C)C3)C1`, the GI50 was inactive: > 100 µM.

With `CCOC(=O)C1=C(C)N(Cc2ccccc2)C(=O)C1CC#N` (stereo not given), the GI50 was inactive: > 100 µM.

With `CN1N=C(c2ccccc2)C(C(c2ccccc2[N+](=O)[O-])C2C(=O)N(C)N=C2c2ccccc2)C1=O` (stereo not given), the GI50 was inactive: > 100 µM.

For `O=C(c1ccccc1)c1ccc(OCCOc2ccc(Nc3ccccc3)cc2)cc1`, the GI50 is inactive: > 100 µM.

For `C=CC1(NS(=O)(=O)c2ccc(C)cc2)CCC(C(C)(C)C)CC1` (stereo not given), the GI50 is inactive: > 100 µM.

For the molecule `CC(=O)O[C@@H](C1C[C@@H](C)[C@H]2[C@@](O)(O1)[C@H](O)[C@@]1(C)C3=CC[C@H]4C(C)(C)[C@@H](OC5OCC(O)C(O)C5O)CC[C@@]45C[C@@]35CC[C@]21C)C(C)(C)O` (stereo not given in full), the GI50 is inactive: 35.3 µM.

For `N=C(N)N/N=C/c1c(-c2cccc([N+](=O)[O-])c2)nc2n1CCS2`, the GI50 is inactive: 21.4 µM.

Regarding `CC1=C(c2cc(C(=O)Nc3cc(C)ccc3C)nc(N)n2)Sc2ccccc2N1`, the GI50 was inactive: > 100 µM.

Take `C=CCc1cc(OC)c2c(c1)C(OC)CC(c1ccc(OC)c(OC)c1)O2` (stereo not given): the GI50 was inactive: > 100 µM.

As to `Cc1cn(C2CC(O)C(Cn3cc(Cn4ncc(=O)[nH]c4=O)nn3)O2)c(=O)[nH]c1=O` (stereo not given), the GI50 was inactive: > 100 µM.

Regarding `COc1ccc2nc3cccc(C(=O)NCCN(C)C)c3nc2c1`, the GI50 is inactive: 1.53 µM.

For `O=C(Cc1ccc([N+](=O)[O-])c([N+](=O)[O-])c1CC(=O)C(=O)Nc1cc(Cl)ccc1Cl)C(=O)Nc1cc(Cl)ccc1Cl`, the GI50 was inactive: > 100 µM.

Turning to `O=C1CC2C=CC1C2CO` (stereo not given), the GI50 was inactive: > 100 µM.

For `NCCCC[C@H](N)C(=O)Nc1ccc(-c2nc3ccccc3s2)cc1Cl`, the GI50 is inactive: 12.4 µM.

For the molecule `O=C(NNS(=O)(=O)c1ccc(Br)cc1)c1ccc(Cl)cc1NC(=O)C12CC3CC(CC(C3)C1)C2`, the GI50 was inactive: 17.5 µM.

As for `N#CC(c1ccccc1)N(CCc1ccccc1)C(=O)Oc1ccccc1` (stereo not given), the GI50 is inactive: > 100 µM.

Regarding `CN(C)/N=C(/c1nc2ccc([N+](=O)[O-])cc2nc1O)C(O)c1ccco1` (stereo not given), the GI50 is inactive: > 100 µM.

As for `CC1=CCP(C(F)(F)F)P(C(F)(F)F)C1` (stereo not given), the GI50 was inactive: > 100 µM.

For the molecule `O=C(CC1(O)C(=O)Nc2c(Cl)cc(Cl)cc21)c1ccccc1` (stereo not given), the GI50 was inactive: > 100 µM.

For `Cc1ccc(Cl)c(NC(=O)C(=O)C(C(=O)c2ccncc2)C2OC(=O)c3ccccc32)c1` (stereo not given), the GI50 is inactive: > 100 µM.

For the molecule `O=C(c1cccnc1)N1N=C(c2ccccc2)CC1(O)c1cc(F)c(Cl)cc1Cl` (stereo not given), the GI50 is inactive: 32.2 µM.

In the case of `C=C(C[C@@H](O)[C@H](C)NC(=O)OCc1ccccc1)C(=O)OC(C)(C)C`, the GI50 was inactive: > 100 µM.

As for `COC(=O)c1ccc(/C=C(\c2ccc([N+](=O)[O-])o2)S(=O)(=O)c2ccc(NC(C)=O)cc2)o1`, the GI50 is inactive: 18.7 µM.

Take `Cc1nc(N)nc(CCC(=O)Nc2cccc(C(F)(F)F)c2)c1-c1ccc(Cl)cc1`: the GI50 was inactive: > 100 µM.

As for `COc1ccc(/N=c2/oc3ccccc3cc2C(N)=O)cc1`, the GI50 is inactive: > 100 µM.

Regarding `CC(C)(c1ccccc1)c1ccc(Oc2ccc(C#N)c(C#N)c2)cc1`, the GI50 was inactive: > 10 µM.

For `O=C1c2ccccc2C2CCC1c1ccccc12` (stereo not given), the GI50 is inactive: 45.3 µM.

On to `CN(C)/C=N/c1ccc2nonc2c1`, for which the GI50 is inactive: > 100 µM.

For `Cc1cc2nc(O)c(C(C)C(=O)c3ccc(Cl)cc3)nc2cc1C` (stereo not given), the GI50 is inactive: 38.6 µM.

For the molecule `CN/N=C(\C(=O)Nc1ccc(C)c(C)c1)C(C(=O)OC)c1nc2ccc([N+](=O)[O-])cc2nc1O` (stereo not given), the GI50 was inactive: > 100 µM.

Regarding `COc1cc(OC)c(OC)cc1/C=C/c1ccccn1`, the GI50 is inactive: > 10 µM.

As for `O=C(CCC(C(=O)OCc1ccccc1)C(=O)OCc1ccccc1)Nc1ccc(OCc2ccccc2)cc1`, the GI50 is inactive: 1.16 µM.

Consider `O=c1[nH]c2ccc(Cl)cc2o1`, for which the GI50 was inactive: > 100 µM.

In the case of `CC[N+](C)(CC)CCNC(=O)C(O)(c1ccccc1)c1ccccc1`, the GI50 was inactive: > 10 µM.

As to `CC1(C)OCC(COC(=O)C=[N+]=[N-])O1` (stereo not given), the GI50 is inactive: > 100 µM.

As for `COC(=O)C1C(OC(=O)c2ccccc2)CC2CCC1N2C(N)=O` (stereo not given), the GI50 was inactive: > 100 µM.

For the molecule `COc1ccc(OCC(=O)O)c2c1CCCC2=O`, the GI50 is inactive: > 100 µM.

As to `CCN(CC)CCO/N=C1\CC[C@H]2[C@@H]3CC=C4C[C@@H](O)CC[C@]4(C)[C@H]3CC[C@]12C`, the GI50 was inactive: 20.4 µM.

As for `CCO/S(=N/S(=O)(=O)c1ccccc1)c1ccccc1[N+](=O)[O-]` (stereo not given), the GI50 was inactive: > 100 µM.

For `CC1(C)N=c2c(ncn2-c2ccccc2)=C(C(N)=O)N1`, the GI50 is inactive: > 100 µM.

Turning to `OC(c1cc2ccccc2[nH]1)C1(c2cccnc2)SCCCS1` (stereo not given), the GI50 is inactive: > 100 µM.

As to `Cc1cc(O)c(C(C)C)cc1/N=C/c1ccccc1O`, the GI50 was inactive: 13.8 µM.

With `CSC1=NC=CCN1C`, the GI50 is inactive: > 100 µM.

`CC(=O)O[C@H]1C(=O)[C@@]2(C)[C@H]([C@H](OC(=O)C3CCCCC3)[C@]3(O)C[C@H](OC(=O)[C@H](O)[C@@H](NC(=O)C4CCCCC4)C4CCCCC4)C(C)=C1C3(C)C)[C@]1(OC(C)=O)CO[C@@H]1C[C@@H]2O`: the GI50 is active: 0.0492 µM.

Consider `N=C(c1ccc2ccccc2c1)c1ccccc1Cc1ccccc1`, for which the GI50 is inactive: 23.9 µM.

Turning to `CN(C)CCNC(=O)c1c(O)ccc2c1c1c(n2CCc2ccccc2)C(=O)c2ccccc2C1=O`, the GI50 is inactive: 7.59 µM.

Regarding `COC1CCN(N(C)C)O1` (stereo not given), the GI50 is inactive: > 100 µM.

Regarding `Cc1ccc(/N=C2\OP(=O)(Nc3ccc(C)cc3)Oc3ccccc32)cc1` (stereo not given), the GI50 was inactive: > 100 µM.

For `CC(=O)C(CN(C(C)C)C(C)C)C(c1ccccc1)c1c(O)c2ccccc2oc1=O` (stereo not given), the GI50 is inactive: > 100 µM.

With `Cc1cccc(NC(=S)N/N=C(/c2ccccc2)c2ccccn2)c1`, the GI50 was active: 0.14 µM.

`O=S(=O)(O)c1ccc(/N=N/c2ccc3c(S(=O)(=O)O)cccc3c2O)c2ccccc12`: the GI50 was inactive: > 100 µM.

For `C/C(=C\c1ccccc1)C(O)S(=O)(=O)O` (stereo not given), the GI50 was inactive: > 100 µM.

As to `N[C@H]1CCC[C@@H](O)C1O` (stereo not given in full), the GI50 is inactive: > 100 µM.

With `COc1ccc(C2COc3cc(O)c(O)cc3C2)cc1` (stereo not given), the GI50 is inactive: 55.7 µM.

In the case of `Cc1cn(C2CC3C(COCN3O)O2)c(=O)[nH]c1=O` (stereo not given), the GI50 is inactive: > 100 µM.

As for `c1ccc2c(CNCCCCCCNCc3cccc4ccccc34)cccc2c1`, the GI50 was inactive: 2.98 µM.

Consider `COc1ccc(C(=O)c2sc(Nc3ccccc3)nc2N)cc1`, for which the GI50 is inactive: > 100 µM.

`CN1CC(=O)N(C)c2ncn(Cc3ccccc3)c2C1=O`: the GI50 was inactive: > 100 µM.

As for `Cc1ccc(Nc2nc(O)c3[nH]cnc3n2)cc1CO`, the GI50 is inactive: 22 µM.
